The values below come from publication PMC9911399, “Two distinct binding modes provide the RNA-binding protein RbFox with extraordinary sequence specificity”.

Sequences and labels used below:
T1: RBFOX1 RRM RbFoxmut (Fox-RRM*) (Homo sapiens, UniProt Q9NWB1 109-208, R118D;E147R;N151S;E152T)
T1 sequence: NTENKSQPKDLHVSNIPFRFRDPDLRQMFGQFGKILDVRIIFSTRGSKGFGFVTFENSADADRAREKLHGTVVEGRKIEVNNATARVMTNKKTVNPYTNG

B1: GACGUUC (DNA:RNA)
RNA: GGGAGACCGGAAUUCAGAUUGUCCGACGUUCUUAAAUCCCGUCGUAGCCACCA
DNA 1: CAATCTGAATTCCGGTCTCCC
DNA 2: TGGTGGCTACGACGGGATT
B2: CCUUGGC (DNA:RNA)
RNA: B1 RNA with G25C, A26C, C27U, G28U, U29G, U30G
DNA 1: CAATCTGAATTCCGGTCTCCC
DNA 2: TGGTGGCTACGACGGGATT
B3: AAUUACC (DNA:RNA)
RNA: B1 RNA with G25A, C27U, G28U, U29A, U30C
DNA 1: CAATCTGAATTCCGGTCTCCC
DNA 2: TGGTGGCTACGACGGGATT
B4: CGCGUCC (DNA:RNA)
RNA: B1 RNA with G25C, A26G, U30C
DNA 1: CAATCTGAATTCCGGTCTCCC
DNA 2: TGGTGGCTACGACGGGATT
B5: UCUUACC (DNA:RNA)
RNA: B1 RNA with G25U, A26C, C27U, G28U, U29A, U30C
DNA 1: CAATCTGAATTCCGGTCTCCC
DNA 2: TGGTGGCTACGACGGGATT
B6: AGUCAGG (DNA:RNA)
RNA: GGGAGACCGGAAUUCAGAUUGUCCAGUCAGGUUAAAUCCCGUCGUAGCCACCA
DNA 1: CAATCTGAATTCCGGTCTCCC
DNA 2: TGGTGGCTACGACGGGATT
B7: GAACGUC (DNA:RNA)
RNA: B1 RNA with C27A, G28C, U29G
DNA 1: CAATCTGAATTCCGGTCTCCC
DNA 2: TGGTGGCTACGACGGGATT
B8: CGCGAGC (DNA:RNA)
RNA: B6 RNA with A25C, U27C, C28G, G31C
DNA 1: CAATCTGAATTCCGGTCTCCC
DNA 2: TGGTGGCTACGACGGGATT
B9: AGACCGG (DNA:RNA)
RNA: B6 RNA with U27A, A29C
DNA 1: CAATCTGAATTCCGGTCTCCC
DNA 2: TGGTGGCTACGACGGGATT
B10: GUCUGGG (DNA:RNA)
RNA: B6 RNA with A25G, G26U, U27C, C28U, A29G
DNA 1: CAATCTGAATTCCGGTCTCCC
DNA 2: TGGTGGCTACGACGGGATT
B11: CUACACA (DNA:RNA)
RNA: B6 RNA with A25C, G26U, U27A, G30C, G31A
DNA 1: CAATCTGAATTCCGGTCTCCC
DNA 2: TGGTGGCTACGACGGGATT
B12: GAGCCGC (DNA:RNA)
RNA: B1 RNA with C27G, G28C, U29C, U30G
DNA 1: CAATCTGAATTCCGGTCTCCC
DNA 2: TGGTGGCTACGACGGGATT
B13: CAUCAUA (DNA:RNA)
RNA: B6 RNA with A25C, G26A, G30U, G31A
DNA 1: CAATCTGAATTCCGGTCTCCC
DNA 2: TGGTGGCTACGACGGGATT
B14: CCCACUG (DNA:RNA)
RNA: B1 RNA with G25C, A26C, G28A, U29C, C31G
DNA 1: CAATCTGAATTCCGGTCTCCC
DNA 2: TGGTGGCTACGACGGGATT
B15: GUCAAGC (DNA:RNA)
RNA: B1 RNA with A26U, G28A, U29A, U30G
DNA 1: CAATCTGAATTCCGGTCTCCC
DNA 2: TGGTGGCTACGACGGGATT
B16: GCCUCUC (DNA:RNA)
RNA: B1 RNA with A26C, G28U, U29C
DNA 1: CAATCTGAATTCCGGTCTCCC
DNA 2: TGGTGGCTACGACGGGATT
B17: CGCUAGA (DNA:RNA)
RNA: B6 RNA with A25C, U27C, C28U, G31A
DNA 1: CAATCTGAATTCCGGTCTCCC
DNA 2: TGGTGGCTACGACGGGATT
B18: CAAAUUA (DNA:RNA)
RNA: B1 RNA with G25C, C27A, G28A, C31A
DNA 1: CAATCTGAATTCCGGTCTCCC
DNA 2: TGGTGGCTACGACGGGATT
B19: UUUUUAC (DNA:RNA)
RNA: B1 RNA with G25U, A26U, C27U, G28U, U30A
DNA 1: CAATCTGAATTCCGGTCTCCC
DNA 2: TGGTGGCTACGACGGGATT
B20: GUUACUA (DNA:RNA)
RNA: B1 RNA with A26U, C27U, G28A, U29C, C31A
DNA 1: CAATCTGAATTCCGGTCTCCC
DNA 2: TGGTGGCTACGACGGGATT

Changes are numbered by the printed parent chain; changes in the protein carry UniProt numbers. The list shows a part of the results.

This assay has as its target T1, RBFOX1 RRM RbFoxmut (Fox-RRM*). Kind of assay: EMSA; HiTS-Eq, 1 nM pool, 10 min; buffer printed only for the single-RNA assays: 10 mM Tris pH 7.5, 150 mM NaCl, 3.4 mM EDTA, 0.001% NP-40, 30 C. The conditions noted are these: tags: His6 N-terminal (pET28a); label: 5' 32P. The essentials: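 These values rest on relative association constants, computed from read-count changes of each RNA species versus the control reaction and normalised to the cognate motif. Reads came from free RNA recovered by 8% native PAGE after purified RbFox RRM (wild type or mutant) at increasing concentrations was equilibrated for 10 min in 50 µL with 1 nM of a 5′-radiolabelled pool with 7 randomized nucleotides and DNA-annealed flanks.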
On the technique in general: In EMSA bound probe runs differently from free probe, usually more slowly.
B1: the binding signal was 0.0691 KA relative to UGCAUGU.

For B2, the binding signal is 0.109 KA relative to UGCAUGU.

On to B3, for which the binding signal is 0.102 KA relative to UGCAUGU.

Consider B4, for which the binding signal was 0.0717 KA relative to UGCAUGU.

As to B5, the binding signal is 0.1 KA relative to UGCAUGU.

As to B6, the binding signal is 0.105 KA relative to UGCAUGU.

For the molecule B7, the binding signal is 0.102 KA relative to UGCAUGU.

As to B8, the binding signal was 0.109 KA relative to UGCAUGU.

With B9, the binding signal is 0.071 KA relative to UGCAUGU.

On to B10, for which the binding signal was 0.0777 KA relative to UGCAUGU.

As for B11, the binding signal was 0.111 KA relative to UGCAUGU.

As for B12, the binding signal is 0.115 KA relative to UGCAUGU.

As for B13, the binding signal was 0.141 KA relative to UGCAUGU.

In the case of B14, the binding signal is 0.103 KA relative to UGCAUGU.

Turning to B15, the binding signal was 0.0714 KA relative to UGCAUGU.

As to B16, the binding signal is 0.0396 KA relative to UGCAUGU.

As to B17, the binding signal is 0.133 KA relative to UGCAUGU.

B18: the binding signal is 0.098 KA relative to UGCAUGU.

As to B19, the binding signal is 0.112 KA relative to UGCAUGU.

For B20, the binding signal was 0.123 KA relative to UGCAUGU.
